Whole data set: some 33,000 sequences, median “E-score (-0.5 to 0.5)” near -0.056, cut for the highest 2% near 0.38. The list shows a part of the results.
Each sequence was assayed against Stb4 (UniProt P50104) (assay: PBM E-score (8-mer binding enrichment) (E-score (-0.5 to 0.5)); higher = stronger / more preferred TF binding; most listed sequences are background and not binding sites). Settings: protein concentration: 200 nM; construct: GST-DNA-binding domain.
Procedure, shortened: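 Yeast transcription factors carrying a GST tag, as full-length proteins or DNA-binding domains, were produced by PURExpress in vitro transcription/translation. About 100-200 nM protein was applied to universal all-10-mer Agilent arrays, double-stranded by primer extension on fresh or once-stripped slides. Bound protein was detected with fluorescent anti-GST, and scans were normalised with masliner. The Universal PBM Analysis Suite gave each ungapped eight-base word, pooled with its reverse complement, an E-score, a modified Wilcoxon-Mann-Whitney statistic.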
AAGCCAAC was tested, and the “PBM E-score” value was -0.186.
With ATCAACAT the “PBM E-score” value was -0.199.
With AGGTAAGA the “PBM E-score” value was -0.0731.
For CTAGCGAG, the “PBM E-score” value was -0.227.
With TGCCTCCA the “PBM E-score” value was -0.348.
For CAGCGTGC, the “PBM E-score” value was -0.0607.
In the case of ATTTTCAC, the “PBM E-score” value is reported as -0.00731.
In the case of CCAGTCCC, the “PBM E-score” value is reported as -0.0404.
With AGGATAAG the “PBM E-score” value was -0.0142.
For CGAATATC, the “PBM E-score” value was 0.1.
With CACCTGAG the “PBM E-score” value was -0.337.
With GACCAGGA the “PBM E-score” value was -0.103.
With TGGGTGAA the “PBM E-score” value was -0.0129.
With GCGGCTAA the “PBM E-score” value was 0.287.
For ACAGGAAT, the “PBM E-score” value was -0.141.
With CGATCGAC the “PBM E-score” value was 0.102.
In the case of ATTCAATA, the “PBM E-score” value is reported as -0.108.
In the case of TAGCATGA, the “PBM E-score” value is reported as -0.313.
With TATTCTAA the “PBM E-score” value was -0.0561.
In the case of TTCATCAA, the “PBM E-score” value is reported as -0.0251.
In the case of CAGTCTAG, the “PBM E-score” value is reported as -0.271.
In the case of AGTTTCCG, the “PBM E-score” value is reported as 0.437.
ATTGGGCA was tested, and the “PBM E-score” value was -0.164.
For ACGGCCCA, the “PBM E-score” value was 0.00132.
With ATCGCTGG the “PBM E-score” value was -0.136.
With CTAGGTCA the “PBM E-score” value was -0.298.
With ACGTAGAA the “PBM E-score” value was -0.0733.
In the case of TGAATCAA, the “PBM E-score” value is reported as -0.0114.
For ATCATCTC, the “PBM E-score” value was 0.00896.
With AAACACCA the “PBM E-score” value was -0.187.
In the case of GTTCAACA, the “PBM E-score” value is reported as 0.0397.
For TAAGGTCA, the “PBM E-score” value was -0.258.
AATCGGCG was tested, and the “PBM E-score” value was 0.25.
For CCATAAGG, the “PBM E-score” value was -0.314.
For ACGTCGCT, the “PBM E-score” value was -0.198.
For CACTGCAA, the “PBM E-score” value was -0.0264.
GGTTCCAC was tested, and the “PBM E-score” value was -0.0389.
In the case of CGCCCGGA, the “PBM E-score” value is reported as 0.328.
With GTATAGGA the “PBM E-score” value was -0.287.
For AAGTTCCC, the “PBM E-score” value was 0.191.
With GCCCCAGC the “PBM E-score” value was -0.121.
In the case of AGGACTTG, the “PBM E-score” value is reported as -0.0809.
In the case of GCGAAGGA, the “PBM E-score” value is reported as -0.0873.
In the case of ATTCCACA, the “PBM E-score” value is reported as 0.0771.
With AAAGTCTA the “PBM E-score” value was -0.0867.
With GAGAACAA the “PBM E-score” value was 0.0423.
For ACTGACGC, the “PBM E-score” value was -0.366.
In the case of CACCTTCC, the “PBM E-score” value is reported as 0.0911.
For TGCTGCCA, the “PBM E-score” value was -0.157.
CCCATCAA was tested, and the “PBM E-score” value was -0.122.
In the case of GGATCCTA, the “PBM E-score” value is reported as 0.122.
CTCGCGGA was tested, and the “PBM E-score” value was 0.21.
In the case of CCATCCAG, the “PBM E-score” value is reported as -0.194.
In the case of GACATTGA, the “PBM E-score” value is reported as 0.116.
For AAATAGCA, the “PBM E-score” value was -0.152.
In the case of ATTTCCAA, the “PBM E-score” value is reported as 0.0026.
AGCTTTAT was tested, and the “PBM E-score” value was -0.099.
For CACTAGAC, the “PBM E-score” value was -0.0182.
AGCTCACA was tested, and the “PBM E-score” value was -0.192.
With ACTGCTAA the “PBM E-score” value was -0.204.
With ATAGTGCA the “PBM E-score” value was 0.0253.
With ACGAGCGT the “PBM E-score” value was -0.23.
For CGTCTGGA, the “PBM E-score” value was -0.213.
For AGCCATGC, the “PBM E-score” value was -0.0583.
For AACTTAGA, the “PBM E-score” value was -0.125.
For AGATGGGG, the “PBM E-score” value was -0.322.
For ACACACAA, the “PBM E-score” value was -0.0284.
With CGAGGACC the “PBM E-score” value was 0.0985.
In the case of AGCTGAGG, the “PBM E-score” value is reported as -0.186.
For CCGGTTCG, the “PBM E-score” value was 0.218.
In the case of CGAGCGCC, the “PBM E-score” value is reported as 0.0887.
ACCCCTAA was tested, and the “PBM E-score” value was -0.135.
For ACAAACGT, the “PBM E-score” value was -0.162.
In the case of ACAAAGGT, the “PBM E-score” value is reported as -0.0706.
In the case of CCAACCGA, the “PBM E-score” value is reported as 0.261.
For AGGCCCCA, the “PBM E-score” value was -0.094.
With GATGCAGA the “PBM E-score” value was -0.0525.
For CCTGAACG, the “PBM E-score” value was 0.0809.
CTAACGAG was tested, and the “PBM E-score” value was -0.0397.
ATGTTGGA was tested, and the “PBM E-score” value was 0.0927.
With AAAAAACT the “PBM E-score” value was -0.0784.
In the case of ATGTCTAC, the “PBM E-score” value is reported as -0.0761.
For GATACATC, the “PBM E-score” value was -0.0611.
With GGTTTTCA the “PBM E-score” value was 0.0509.
With GCTTTCCA the “PBM E-score” value was -0.0364.
AGGGGAAC was tested, and the “PBM E-score” value was -0.196.
For ACTTTAGC, the “PBM E-score” value was 0.0442.
For AAGATGCC, the “PBM E-score” value was 0.0428.
With CTCCAAAG the “PBM E-score” value was -0.148.
For AGGTATGG, the “PBM E-score” value was 0.0672.
With CATAAACC the “PBM E-score” value was -0.00173.
For CCTACTCG, the “PBM E-score” value was 0.0849.
In the case of TTCTAAAA, the “PBM E-score” value is reported as 0.0167.
GTTAAAAC was tested, and the “PBM E-score” value was 0.0832.
GACCTAGA was tested, and the “PBM E-score” value was -0.115.
CGCGTTAC was tested, and the “PBM E-score” value was -0.0755.
For CATAACGG, the “PBM E-score” value was 0.0556.
With CGTCCTAA the “PBM E-score” value was -0.236.
With ATAATGCC the “PBM E-score” value was 0.157.
With TACTCTGA the “PBM E-score” value was -0.154.
With CATTTCCC the “PBM E-score” value was 0.18.
With GCGTGCAC the “PBM E-score” value was -0.00405.
For AACAACTG, the “PBM E-score” value was -0.121.
GATAAGGA was tested, and the “PBM E-score” value was 0.0892.
For GGAAATGA, the “PBM E-score” value was 0.153.
In the case of AACACTAA, the “PBM E-score” value is reported as -0.105.
CGCTAGCA was tested, and the “PBM E-score” value was -0.185.
AATCACGT was tested, and the “PBM E-score” value was -0.0316.
For GCACGAAC, the “PBM E-score” value was -0.087.
In the case of AGAGCACG, the “PBM E-score” value is reported as -0.0543.
With GGAATCAC the “PBM E-score” value was 0.244.
In the case of CCATCTAA, the “PBM E-score” value is reported as -0.0679.
AGGCCGAG was tested, and the “PBM E-score” value was 0.239.
TGGCTGAA was tested, and the “PBM E-score” value was -0.145.
In the case of ATGTCGGG, the “PBM E-score” value is reported as 0.307.
In the case of CAGATCGA, the “PBM E-score” value is reported as -0.0966.
CCCCCACG was tested, and the “PBM E-score” value was -0.148.
In the case of GTCATGCA, the “PBM E-score” value is reported as -0.0475.
With ACATCGGA the “PBM E-score” value was 0.346.
In the case of AGCCTGTG, the “PBM E-score” value is reported as -0.181.
In the case of GACTTTAA, the “PBM E-score” value is reported as 0.00489.
For CACTGCCG, the “PBM E-score” value was 0.259.
With ATCTCTAC the “PBM E-score” value was -0.146.
With AAATTAAG the “PBM E-score” value was -0.00797.
AGTTATTA was tested, and the “PBM E-score” value was -0.143.
For CTATAACC, the “PBM E-score” value was -0.0401.
CCATGCGG was tested, and the “PBM E-score” value was -0.0615.
With CTTCCTGC the “PBM E-score” value was -0.234.
CAGTGCTA was tested, and the “PBM E-score” value was -0.0892.
With AGGATTTC the “PBM E-score” value was -0.0426.
For ACGGGTCT, the “PBM E-score” value was 0.0222.
With CCTGTCAG the “PBM E-score” value was -0.0739.
For AAGTAGCA, the “PBM E-score” value was -0.19.
With ACTGCGCC the “PBM E-score” value was -0.166.
In the case of ATGGAACC, the “PBM E-score” value is reported as 0.0684.
In the case of ACAACTTA, the “PBM E-score” value is reported as -0.252.
With AGACAGGG the “PBM E-score” value was -0.178.
For ATAACAAA, the “PBM E-score” value was 0.0168.
ACCTTGTG was tested, and the “PBM E-score” value was -0.217.
With GTCCGTTA the “PBM E-score” value was 0.16.
With CGAATAGC the “PBM E-score” value was -0.0664.
In the case of AAAATACA, the “PBM E-score” value is reported as -0.145.
GAAGGGCA was tested, and the “PBM E-score” value was 0.0424.
In the case of CAGTCACC, the “PBM E-score” value is reported as -0.0586.
For GGCTTGGA, the “PBM E-score” value was -0.277.
In the case of CCGATGCG, the “PBM E-score” value is reported as 0.306.
In the case of CGGTACGA, the “PBM E-score” value is reported as 0.237.
With ACCCATTA the “PBM E-score” value was 0.0384.
For AAGGGGCT, the “PBM E-score” value was -0.152.
CAAGTGTG was tested, and the “PBM E-score” value was -0.103.
GTGCTTGA was tested, and the “PBM E-score” value was -0.21.
With CCCACGCG the “PBM E-score” value was -0.0488.
In the case of CGAACACG, the “PBM E-score” value is reported as 0.191.
With GCGTATCC the “PBM E-score” value was -0.0185.
In the case of GGCGGACA, the “PBM E-score” value is reported as -0.0148.
For AATTGCCG, the “PBM E-score” value was 0.338.
With ACTCCCCG the “PBM E-score” value was 0.188.
With GCCAGTTA the “PBM E-score” value was -0.0648.
In the case of CGACCCTA, the “PBM E-score” value is reported as 0.0884.
CTTAAATA was tested, and the “PBM E-score” value was -0.124.
In the case of AGTCGTAT, the “PBM E-score” value is reported as -0.147.
For GGTGACCA, the “PBM E-score” value was -0.12.
In the case of CTAATTAC, the “PBM E-score” value is reported as -0.0371.
GGTAATAA was tested, and the “PBM E-score” value was 0.221.
AGCAATAT was tested, and the “PBM E-score” value was -0.227.
AGAGTCAA was tested, and the “PBM E-score” value was 0.016.
CGAAGCCG was tested, and the “PBM E-score” value was 0.275.
For ACATGCTA, the “PBM E-score” value was -0.254.
AGGTAGCA was tested, and the “PBM E-score” value was -0.255.
CATGGGAA was tested, and the “PBM E-score” value was -0.0115.
With CTTGTGGA the “PBM E-score” value was -0.287.
With ATGTACGG the “PBM E-score” value was 0.049.
